# Out of some 310,000 compounds screened, about 14,000 (4.5%) showed an effect of 50% or more. The effect is printed as a negative number. Some of the results follow.
# Biological target: human ether-à-go-go-related gene (hERG) potassium channel (human, UniProt Q12809)
# Test: primary screen, population patch clamp on CHO cells stably expressing hERG
# 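Note: peak tail current of the secondary pulse compared with the same well before compound.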
# human ether-à-go-go-related gene (hERG) potassium channel, sequence (Q12809 whole entry, looked up): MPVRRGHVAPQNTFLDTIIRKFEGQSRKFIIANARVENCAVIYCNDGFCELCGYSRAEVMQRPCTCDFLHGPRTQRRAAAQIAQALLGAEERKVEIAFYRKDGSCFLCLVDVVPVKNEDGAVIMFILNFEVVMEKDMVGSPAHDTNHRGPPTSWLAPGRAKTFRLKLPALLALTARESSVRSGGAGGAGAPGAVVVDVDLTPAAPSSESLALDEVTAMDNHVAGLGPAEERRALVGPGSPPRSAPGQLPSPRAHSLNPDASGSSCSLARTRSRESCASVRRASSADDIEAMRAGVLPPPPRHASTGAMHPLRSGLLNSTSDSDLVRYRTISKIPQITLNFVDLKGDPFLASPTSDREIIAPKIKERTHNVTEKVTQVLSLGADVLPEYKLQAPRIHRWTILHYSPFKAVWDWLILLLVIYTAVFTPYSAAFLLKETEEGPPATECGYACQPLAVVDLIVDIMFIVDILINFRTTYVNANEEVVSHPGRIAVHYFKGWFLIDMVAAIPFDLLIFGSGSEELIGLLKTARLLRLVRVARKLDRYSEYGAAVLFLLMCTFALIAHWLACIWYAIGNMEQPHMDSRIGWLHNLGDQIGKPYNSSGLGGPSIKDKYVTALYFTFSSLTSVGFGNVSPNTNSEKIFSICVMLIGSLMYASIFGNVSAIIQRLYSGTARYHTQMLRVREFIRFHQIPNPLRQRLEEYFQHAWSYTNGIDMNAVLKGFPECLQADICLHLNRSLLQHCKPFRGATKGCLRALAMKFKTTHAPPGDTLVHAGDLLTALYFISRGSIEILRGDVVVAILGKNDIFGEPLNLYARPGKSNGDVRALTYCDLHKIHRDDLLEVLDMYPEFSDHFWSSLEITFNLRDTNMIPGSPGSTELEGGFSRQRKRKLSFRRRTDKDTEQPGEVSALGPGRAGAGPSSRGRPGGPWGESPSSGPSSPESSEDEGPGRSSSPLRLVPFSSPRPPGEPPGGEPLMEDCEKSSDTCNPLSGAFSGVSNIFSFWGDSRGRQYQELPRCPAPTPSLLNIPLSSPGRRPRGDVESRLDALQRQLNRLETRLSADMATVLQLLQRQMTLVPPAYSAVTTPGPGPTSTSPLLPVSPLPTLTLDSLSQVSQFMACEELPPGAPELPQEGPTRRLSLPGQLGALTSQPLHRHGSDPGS
row,Structure (SMILES),"hERG current change (%, negative = inhibition) at 10uM [%]"
1,O=C1N[C@H](C(=O)O)CS1,-1.57
2,Cc1ccc(CNC(=O)C2(S(=O)(=O)c3ccccc3)CC=CC2)cc1,-13.2
3,CCOC(=O)Cn1nnnc1C(CC)N(Cc1ccccc1)Cc1cc2cc(C)ccc2[nH]c1=O (stereo not drawn),7.64
4,CCN(CC)S(=O)(=O)c1cccc(-c2nnc(SCC(N)=O)n2N)c1,-28.9
5,CCN1CCc2c(OCC(=O)Nc3cccc(C)c3)cccc2C1=O,-9.92
6,CCCC1N2CC3([N+](=O)[O-])CN1CC([N+](=O)[O-])(C2)C3(C)C (stereo not drawn),-1.89
7,CCOC(=O)c1c(NC(=O)C2=COCCO2)sc2c1CCN(C(=O)OC)C2,4.05
8,CCOC(=O)/C(=N\Nc1ccc(Br)cc1)N1CC(C)OC(C)C1 (stereo not drawn),-42.3
9,CCC1CCCCN1S(=O)(=O)c1ccc(S(=O)(=O)N(Cc2ccccn2)CC2CCCO2)cc1 (stereo not drawn),-6.23
10,COc1cc(OC)cc(-c2nnc(SCc3ccc(C(=O)O)cc3)o2)c1,-71.6
11,CCOC(=O)C1=C(NC(=S)NC(=O)c2ccccc2)c2ccccc2CC1(C)CC (stereo not drawn),3.16
12,Cc1cc(CN2CCCCC2)oc1C(=O)O.Cl,-9.14
13,CCC(NC(=O)c1ccccc1NC(=O)c1ccccc1)C(=O)NNC(=O)CSc1nc2ccccc2o1 (stereo not drawn),-3.16
14,CCc1cccc(C)c1NC(=S)NCc1ccccc1,0.76
15,Cc1ccc(C)c(-n2nnnc2Sc2nc([N+](=O)[O-])nn2C)c1,-22.5
16,COC(=O)c1ccccc1Sc1ncnc2onc(C)c12,1.26
17,O=C(Nc1ccc(Cc2ccc(NC(=O)C3CC3)cc2)cc1)C1CC1,22.7
18,O=C(O)/C(=C1/OC(=O)c2ccccc21)c1ccccc1,12.4
19,Cc1c(C(=O)N2CCC(C)CC2)oc2ccc(S(=O)(=O)N3CCC4(CC3)OCCO4)cc12,-2.35
20,Cc1ccccc1CN1[C@@H](Cc2ccccc2)COCCS1(=O)=O,-9.87
21,Nc1cccc(S(=O)(=O)Nc2ccc(SC(F)F)cc2)c1,4.81
22,CN(C)NC(=O)c1cccc(Cl)c1,18.4
23,COc1ccc(NC(=O)c2ccc(Cn3cc(Cl)cn3)cc2)cc1,1.21

row,Structure (SMILES),"hERG current change (%, negative = inhibition) at 10uM [%]"
1,CN(C)c1ccc(CC(=O)c2nc3ccccc3s2)cc1,11.5
2,CC1(C(=O)OCc2cc(=O)n3cc(Br)ccc3n2)CC1(Cl)Cl (stereo not drawn),-54.3
3,CCC(C)NC(=O)Cn1cc(S(=O)(=O)N2CCCC2)c(S(=O)(=O)N2CCCC2)c1 (stereo not drawn),22.7
4,CC(C)c1ccc(C(=O)Nc2ccc(CN3CCOCC3)cc2)cc1,-48.3
5,CCCCCNC(=O)c1ccc2c(=O)[nH]c3c(C(=O)NCC4CCCO4)sc(=S)n3c2c1 (stereo not drawn),-4.56
6,O=C(NCC1CCCO1)c1ccc2c(=O)n(Cc3ccc(Cl)cc3)c(=S)[nH]c2c1 (stereo not drawn),6.02
7,CCn1cc(S(=O)(=O)NCc2ccccc2Br)cn1,-1.6
8,COc1ccccc1NC(=O)CN(c1ccccc1C)S(C)(=O)=O,11.2
9,NC(=O)CCCc1nc(-c2ccccc2)no1,6.27
10,CC(C)CC(=O)/C=C/n1c(=S)oc2ccccc21,7.85
11,Cc1ccnn1CC(=O)N/N=C/c1ccc2c(c1)OCO2,-7.72
12,COc1ccc2[nH]cc(C(O)CN3CCC(C(N)=O)CC3)c2c1 (stereo not drawn),12
13,CC(=O)c1ccc(NC(=O)C2=CC(c3cccs3)=NS(=O)(=O)N2C)cc1,-0.218
14,O=C(Nc1cc(Cl)ccc1Cl)c1noc2c1CCCC2,12.4
15,Cc1ccc(-c2nnc(SCC(=O)N3CCOCC3)nc2-c2ccc(C)cc2)cc1,-30.3
16,CC1(C)CC(=O)C2=C(C1)OC(N)=C(C#N)C2c1ccsc1 (stereo not drawn),-15.6
17,O=C(O)CSc1ccc2ccccc2n1,10.9
18,Cc1cc(C)c2cc(C(=O)N3CCN(c4ncccc4C(F)(F)F)CC3)[nH]c2c1,-2.36
19,CCOC(=O)CSc1nnnn1-c1cccc2ccccc12,-5.25
20,COC(=O)C(C)(C)ONC(=O)Nc1ccc([N+](=O)[O-])cc1,-0.166
21,Cc1ccc(-c2noc(-c3ccccc3Br)n2)cc1,20.5
22,COc1ccc(-c2csc(NC(=O)c3c(C)noc3C)n2)cc1,-8.91
